{"source": "the supplement of paper PMC4604168 (melanoma cell lines)", "note": "The list shows a part of the results. Repeats are few or missing, and single values can be far off.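 Also: cells treated in 1,536-well plates, then fixed and DAPI-stained, with nuclei counted from automated high-throughput microscope images.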"}
{"system": "A101D", "experiment": "cell count relative to DMSO control; melanoma cells; higher = more viable cells", "conditions": "library dose: standard library concentration; 72 h", "units": {"cell count": "%"}}
{"smiles": "OCc1c[nH]c2ccccc12", "note": "[Indole-3-carbinol] + CN(C)S(=O)(=O)c1ccc2c(c1)/C(=C/c1cc3c([nH]1)CCCC3)C(=O)N2 [SU6656] (first compound 4 µM, partner dose 2 µM)", "cell count": 70.8}
{"smiles": "Cn1c(Nc2ccc(C(F)(F)F)cc2)nc2cc(Oc3ccnc(-c4ncc(C(F)(F)F)[nH]4)c3)ccc21", "note": "+ COc1cc2c(Oc3ccc4[nH]c(C)cc4c3F)ncnc2cc1OCCCN1CCCC1 [cediranib] (first compound 0.4 µM, partner dose 2 µM)", "cell count": 58.5}
{"smiles": "Clc1ccc(Nc2nnc(Cc3ccncc3)c3ccccc23)cc1", "note": "[vatalanib] + C=CCn1c(=O)c2cnc(Nc3ccc(N4CCN(C)CC4)cc3)nc2n1-c1cccc(C(C)(C)O)n1 [MK1775] (first compound 10 µM, partner dose 0.1 µM)", "cell count": 55.6}
{"smiles": "C#Cc1cccc(Nc2ncnc3cc(OCCOC)c(OCCOC)cc23)c1", "note": "[erlotinib] + COc1ccc(Cl)c(Nc2nc3ccccc3nc2NS(=O)(=O)c2cccc(NC(=O)C(C)(C)N)c2)c1 [XL147] (first compound 4 µM, partner dose 4 µM)", "cell count": 75.7}
{"smiles": "Clc1ccc(Nc2nnc(Cc3ccncc3)c3ccccc23)cc1", "note": "[vatalanib] + CC(C)(C)c1cnc(CSc2cnc(NC(=O)C3CCNCC3)s2)o1 [SNS-032] (first compound 10 µM, partner dose 0.05 µM)", "cell count": 43.2}
{"smiles": "Nc1cccc2c1CN(C1CCC(=O)NC1=O)C2=O", "note": "(stereo not drawn) [lenalidomide] + C[C@@H]1CCN(C(=O)CC#N)C[C@@H]1N(C)c1ncnc2[nH]ccc12 [CP690550] (first compound 5 µM, partner dose 5 µM)", "cell count": 111}
{"smiles": "Cn1c(Nc2ccc(C(F)(F)F)cc2)nc2cc(Oc3ccnc(-c4ncc(C(F)(F)F)[nH]4)c3)ccc21", "note": "+ CC1(C)NC(=O)N(c2ccc([N+](=O)[O-])c(C(F)(F)F)c2)C1=O [nilutamide] (first compound 0.4 µM, partner dose 5 µM)", "cell count": 55.9}
{"smiles": "Nc1cccc2c1CN(C1CCC(=O)NC1=O)C2=O", "note": "(stereo not drawn) [lenalidomide] + CN(NC(=O)CC(=O)NN(C)C(=S)c1ccccc1)C(=S)c1ccccc1 [STA4783] (first compound 5 µM, partner dose 0.03 µM)", "cell count": 58.6}
{"smiles": "OCc1c[nH]c2ccccc12", "note": "[Indole-3-carbinol] + O=C(CCCCCCC(=O)Nc1ccccc1)NO [vorinostat] (first compound 4 µM, partner dose 0.4 µM)", "cell count": 93}
{"smiles": "C#Cc1cccc(Nc2ncnc3cc(OCCOC)c(OCCOC)cc23)c1", "note": "[erlotinib] + Nc1cccc2c1CN(C1CCC(=O)NC1=O)C2=O [lenalidomide] (first compound 4 µM, partner dose 5 µM)", "cell count": 74.2}
{"smiles": "Clc1ccc(Nc2nnc(Cc3ccncc3)c3ccccc23)cc1", "note": "[vatalanib] + CO[C@@H]1[C@H](N(C)C(=O)c2ccccc2)C[C@H]2O[C@]1(C)n1c3ccccc3c3c4c(c5c6ccccc6n2c5c31)C(=O)NC4 [Midostaurin] (first compound 10 µM, partner dose 0.4 µM)", "cell count": 50.5}
{"smiles": "Cn1c(Nc2ccc(C(F)(F)F)cc2)nc2cc(Oc3ccnc(-c4ncc(C(F)(F)F)[nH]4)c3)ccc21", "note": "+ C[C@@H]1CCN(C(=O)CC#N)C[C@@H]1N(C)c1ncnc2[nH]ccc12 [CP690550] (first compound 0.4 µM, partner dose 5 µM)", "cell count": 85.8}
{"smiles": "Cn1c(Nc2ccc(C(F)(F)F)cc2)nc2cc(Oc3ccnc(-c4ncc(C(F)(F)F)[nH]4)c3)ccc21", "note": "+ NCC(=O)Nc1ccc(-n2nc(C(F)(F)F)cc2-c2ccc3c(ccc4ccccc43)c2)cc1 [OSU03012] (first compound 0.4 µM, partner dose 5 µM)", "cell count": 56.5}
{"smiles": "O=C(CCCCCCC(=O)Nc1ccccc1)NO", "note": "[vorinostat] + NC(=O)Nc1cc(-c2cccc(F)c2)sc1C(=O)N[C@H]1CCCNC1 [AZD7762] (first compound 0.4 µM, partner dose 0.1 µM)", "cell count": 67.3}
{"smiles": "C#Cc1cccc(Nc2ncnc3cc(OCCOC)c(OCCOC)cc23)c1", "note": "[erlotinib] + Cc1nc(Nc2ncc(C(=O)Nc3c(C)cccc3Cl)s2)cc(N2CCN(CCO)CC2)n1 [dasatanib] (first compound 4 µM, partner dose 0.02 µM)", "cell count": 58.3}
{"smiles": "Cn1c(Nc2ccc(C(F)(F)F)cc2)nc2cc(Oc3ccnc(-c4ncc(C(F)(F)F)[nH]4)c3)ccc21", "note": "+ O=C(CCCCCCC(=O)Nc1ccccc1)NO [vorinostat] (first compound 0.4 µM, partner dose 0.4 µM)", "cell count": 52.2}
{"smiles": "C#Cc1cccc(Nc2ncnc3cc(OCCOC)c(OCCOC)cc23)c1", "note": "[erlotinib] + COc1cc2c(Oc3ccc4[nH]c(C)cc4c3F)ncnc2cc1OCCCN1CCCC1 [cediranib] (first compound 4 µM, partner dose 2 µM)", "cell count": 80}
{"smiles": "C#Cc1cccc(Nc2ncnc3cc(OCCOC)c(OCCOC)cc23)c1", "note": "[erlotinib] + CN(C)S(=O)(=O)c1ccc2c(c1)/C(=C/c1cc3c([nH]1)CCCC3)C(=O)N2 [SU6656] (first compound 4 µM, partner dose 2 µM)", "cell count": 59.3}
{"smiles": "Clc1ccc(Nc2nnc(Cc3ccncc3)c3ccccc23)cc1", "note": "[vatalanib] + C[C@@H]1CCN(C(=O)CC#N)C[C@@H]1N(C)c1ncnc2[nH]ccc12 [CP690550] (first compound 10 µM, partner dose 5 µM)", "cell count": 77}
{"smiles": "C#Cc1cccc(Nc2ncnc3cc(OCCOC)c(OCCOC)cc23)c1", "note": "[erlotinib] + Cn1c(Nc2ccc(C(F)(F)F)cc2)nc2cc(Oc3ccnc(-c4ncc(C(F)(F)F)[nH]4)c3)ccc21 [CHIR265] (first compound 4 µM, partner dose 0.4 µM)", "cell count": 63.1}
{"smiles": "Cn1c(Nc2ccc(C(F)(F)F)cc2)nc2cc(Oc3ccnc(-c4ncc(C(F)(F)F)[nH]4)c3)ccc21", "note": "+ CN(C)S(=O)(=O)c1ccc2c(c1)/C(=C/c1cc3c([nH]1)CCCC3)C(=O)N2 [SU6656] (first compound 0.4 µM, partner dose 2 µM)", "cell count": 48.1}
{"smiles": "OCc1c[nH]c2ccccc12", "note": "[Indole-3-carbinol] + COc1cc(Nc2ncc(F)c(Nc3ccc4c(n3)NC(=O)C(C)(C)O4)n2)cc(OC)c1OC [Tamatinib] (first compound 4 µM, partner dose 2 µM)", "cell count": 32.3}
{"smiles": "Cn1c(Nc2ccc(C(F)(F)F)cc2)nc2cc(Oc3ccnc(-c4ncc(C(F)(F)F)[nH]4)c3)ccc21", "note": "+ Cn1cncc1[C@@](N)(c1ccc(Cl)cc1)c1ccc2c(c1)c(-c1cccc(Cl)c1)cc(=O)n2C [tipifarnib] (first compound 0.4 µM, partner dose 0.05 µM)", "cell count": 64.6}
{"smiles": "Clc1ccc(Nc2nnc(Cc3ccncc3)c3ccccc23)cc1", "note": "[vatalanib] + O=C(CCCCCCC(=O)Nc1ccccc1)NO [vorinostat] (first compound 10 µM, partner dose 0.4 µM)", "cell count": 72.4}
{"smiles": "C#Cc1cccc(Nc2ncnc3cc(OCCOC)c(OCCOC)cc23)c1", "note": "[erlotinib] + NCC(=O)Nc1ccc(-n2nc(C(F)(F)F)cc2-c2ccc3c(ccc4ccccc43)c2)cc1 [OSU03012] (first compound 4 µM, partner dose 5 µM)", "cell count": 52.9}
{"smiles": "Cn1c(Nc2ccc(C(F)(F)F)cc2)nc2cc(Oc3ccnc(-c4ncc(C(F)(F)F)[nH]4)c3)ccc21", "note": "+ O=C(O)c1ccc(-c2c[nH]c3ncc(-c4ccccc4)cc23)cc1C1CCCC1 [GSK650394] (first compound 0.4 µM, partner dose 0.8 µM)", "cell count": 61.6}
{"smiles": "COCC[n+]1c2c(n(Cc3cnccn3)c1C)C(=O)c1ccccc1C2=O", "note": "+ O=C(CCCCCCC(=O)Nc1ccccc1)NO [vorinostat] (first compound 0.002 µM, partner dose 0.4 µM)", "cell count": 86.1}
{"smiles": "C#Cc1cccc(Nc2ncnc3cc(OCCOC)c(OCCOC)cc23)c1", "note": "[erlotinib] + C[C@]1(c2nc3c(C(N)=O)cccc3[nH]2)CCCN1 [Veliparib] (first compound 4 µM, partner dose 7 µM)", "cell count": 61.1}
{"smiles": "OCc1c[nH]c2ccccc12", "note": "[Indole-3-carbinol] + Nc1cccc2c1CN(C1CCC(=O)NC1=O)C2=O [lenalidomide] (first compound 4 µM, partner dose 5 µM)", "cell count": 95.4}
{"smiles": "Cn1c(Nc2ccc(C(F)(F)F)cc2)nc2cc(Oc3ccnc(-c4ncc(C(F)(F)F)[nH]4)c3)ccc21", "note": "+ NC(=O)Nc1cc(-c2cccc(F)c2)sc1C(=O)N[C@H]1CCCNC1 [AZD7762] (first compound 0.4 µM, partner dose 0.1 µM)", "cell count": 47.1}
{"smiles": "Clc1ccc(Nc2nnc(Cc3ccncc3)c3ccccc23)cc1", "note": "[vatalanib] + COCC[n+]1c2c(n(Cc3cnccn3)c1C)C(=O)c1ccccc1C2=O [YM155] (first compound 10 µM, partner dose 0.002 µM)", "cell count": 78.1}
{"smiles": "Nc1cccc2c1CN(C1CCC(=O)NC1=O)C2=O", "note": "(stereo not drawn) [lenalidomide] + Cc1ccc(NC(=O)c2cccc(N(C)C)c2)cc1NC(=O)c1ccc(O)cc1 [ZM336372] (first compound 5 µM, partner dose 10 µM)", "cell count": 98.8}
{"smiles": "O=C(CCCCCCC(=O)Nc1ccccc1)NO", "note": "[vorinostat] + CN(C)S(=O)(=O)c1ccc2c(c1)/C(=C/c1cc3c([nH]1)CCCC3)C(=O)N2 [SU6656] (first compound 0.4 µM, partner dose 2 µM)", "cell count": 64.8}
